In all, about 370,000 compounds went through this assay and about 150 (0.041%) were called active. Inconclusive results, whose numbers are uncertain, are shown with a selection of clear calls. The call rests on the fitted dose curve; in most records, active means well fitted inhibition curve with a large enough effect; inconclusive means small, poorly fitted or top-dose-only effect; inactive means flat fitted curve, though single readings scatter. Potencies of inconclusive entries are left out as doubtful fits.
The compounds below were run against Beta-lactamase (Escherichia coli (strain K12)) (UniProt P00811) (assay: qHTS Inhibitors of AmpC Beta-Lactamase (assay with detergent)). Conditions: AmpC hydrolysis of nitrocefin, absorbance 480 nm, 0.01% Triton; activity change, negative = inhibition: at 114 µM (top of the series).
In short: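 AmpC (5.3 nM in the dispensed reagent) in 20 mM phosphate pH 7.0 with 0.01% (detergent screen) or 0.0001% Triton X-100 was preincubated with compounds for 15 min at room temperature. Nitrocefin was then added from an 800 uM solution, and hydrolysis was followed at 480 nm.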
Further: nearly all actives have a fitted effect of over 25% in size.
Potency means the concentration at half of the fitted maximal effect; tags describe the fitted curve by direction and shape.
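Wherever activity change, negative = inhibition is given: 0% = no-compound wells and -100% = no-enzyme wells.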

UniProt P00811, sequence (P00811 whole entry, looked up): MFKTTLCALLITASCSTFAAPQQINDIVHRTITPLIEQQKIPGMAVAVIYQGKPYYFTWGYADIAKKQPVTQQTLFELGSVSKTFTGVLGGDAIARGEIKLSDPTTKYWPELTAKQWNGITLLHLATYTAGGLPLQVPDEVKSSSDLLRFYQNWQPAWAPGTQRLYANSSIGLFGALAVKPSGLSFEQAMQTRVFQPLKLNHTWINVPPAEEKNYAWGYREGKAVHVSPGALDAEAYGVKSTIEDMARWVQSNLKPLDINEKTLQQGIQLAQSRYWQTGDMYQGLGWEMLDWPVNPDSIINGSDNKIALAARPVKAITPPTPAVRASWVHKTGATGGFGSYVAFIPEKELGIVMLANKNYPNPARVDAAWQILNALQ

**Q.** COc1ccccc1NC(=O)CCC(=O)OCc1cccc([N+](=O)[O-])c1 was tested. Which Potency did it give?
**A.** inconclusive [inhibitor, partial curve]

**Q.** CCC1(C)NC(=O)N(/N=C/c2cc(OC)c(O)c(OC)c2)C1=O (centres undefined) was tested. Which “activity change, negative = inhibition” value did it give?
**A.** inactive: 0.866%

**Q.** For Cc1ccc(NC(=O)Cn2cc(C(F)(F)F)cc(Cl)c2=O)cc1Cl, which Potency is on record?
**A.** inconclusive [inhibitor, full curve, poor fit]

**Q.** For Cc1cc(CN2C(=O)c3ccccc3C2=O)on1, which Potency is on record?
**A.** inconclusive [inhibitor, full curve]

**Q.** With COc1ccc(CNC(=O)c2onc(C)c2Cl)cc1 as the compound, how does the Potency read?
**A.** inconclusive [inhibitor, full curve, poor fit]

**Q.** How did the “activity change, negative = inhibition” value turn out when O=C(COc1ccc(Br)cc1Br)Nc1ccc(S(=O)(=O)Nc2ncccn2)cc1 was run?
**A.** inactive: 0.832%

**Q.** How did the Potency turn out when O=C(O)c1ccc2c(c1)C(=O)N([C@H](Cc1ccc(O)cc1)C(=O)O)C2=O was run?
**A.** inconclusive [inhibitor, full curve, poor fit]

**Q.** How did the “activity change, negative = inhibition” value turn out when COC(=O)N1CC(=O)N(OC)C1c1ccc(Cl)cc1Cl (centres undefined) was run?
**A.** inactive: 0.155%

**Q.** How did the “activity change, negative = inhibition” value turn out when Cc1cccc(NC(=O)CCN2C(=O)c3ccccc3S2(=O)=O)c1C was run?
**A.** inactive: 3.33%

**Q.** For Cc1cc(SCC(=O)OCC(=O)N2CCCC2=O)c(C)cc1Br, which Potency is on record?
**A.** inconclusive [inhibitor, full curve, poor fit]

**Q.** With CC(NCc1cccs1)c1ccccc1 (centres undefined) as the compound, how does the “activity change, negative = inhibition” value read?
**A.** inactive: -4.52%

**Q.** With O=C1N=c2ccccc2=C1c1sc(Nc2cccc(O)c2)nc1O as the compound, how does the Potency read?
**A.** inconclusive [inhibitor, partial curve]

**Q.** How did the Potency turn out when O=C(Nc1c(F)c(F)c(F)c(F)c1F)NC1CCCCC1 was run?
**A.** inconclusive [inhibitor, partial curve]

**Q.** How did the Potency turn out when CCOc1c(CNCCN2CCOCC2)cccc1OC was run?
**A.** inconclusive [inhibitor, single point]

**Q.** Which “activity change, negative = inhibition” value does the source give for CCCc1ccc(C2C3=C(CC(C)(C)CC3=O)NC3=C2C(=O)c2ccccc23)cc1 (centres undefined) here?
**A.** inactive: 8.49%

**Q.** C=CCn1c(-c2ccc(OC)c(OC)c2)cs/c1=N\c1ccccn1 was tested. Which Potency did it give?
**A.** inconclusive [inhibitor, partial curve]

**Q.** For Cc1ccc2[nH]c(=O)c(CN(CCN3CCOCC3)C(=O)Nc3ccc(F)cc3)cc2c1, which Potency is on record?
**A.** inconclusive [inhibitor, partial curve, poor fit]

**Q.** For NS(=O)(=O)c1ccc(N/C=C\C(=O)c2cccc3ccccc23)cc1, which Potency is on record?
**A.** inconclusive [inhibitor, full curve]

**Q.** How did the Potency turn out when COc1ccc(C2=NN(C(=O)CSc3cn(C)c4ccccc34)C(c3ccc(OC)cc3)C2)cc1 (centres undefined) was run?
**A.** inconclusive [inhibitor, full curve]

**Q.** With CCCCCCn1c(N2CCC(C(N)=O)CC2)nc2c1c(=O)n(C)c(=O)n2C as the compound, how does the Potency read?
**A.** inconclusive [inhibitor, full curve]

**Q.** How did the Potency turn out when CC(=O)c1c(C(C)=O)c(C)n(-c2nc(-c3cccs3)c(C)s2)c1C was run?
**A.** inconclusive [inhibitor, partial curve, poor fit]

**Q.** With CCn1c(O)c(C=Nc2ccccc2)oc1=S as the compound, how does the Potency read?
**A.** inconclusive [inhibitor, full curve]

**Q.** Cc1ccccc1N1CCN(C2CCCN(C(=O)c3csc(C(C)C)n3)C2)CC1 (centres undefined) was tested. Which Potency did it give?
**A.** inconclusive [inhibitor, full curve, poor fit]

**Q.** With Cc1cc(C(=O)NCCCOC(C)C)c2ccccc2n1 as the compound, how does the Potency read?
**A.** inconclusive [inhibitor, full curve, poor fit]

**Q.** How did the “activity change, negative = inhibition” value turn out when CCOc1cc(C(=O)N(Cc2nc(-c3ccc(C)cc3)no2)C(C)C)cc(OCC)c1OCC was run?
**A.** inactive: 5.66%

**Q.** Which “activity change, negative = inhibition” value does the source give for CCc1cnc2c(c1SCc1c(F)cccc1Cl)c(=O)n(C)c(=O)n2C here?
**A.** inactive: -2.47%

**Q.** Which Potency does the source give for O=C1CN(S(=O)(=O)c2ccc(F)cc2)CC(=O)N1CCc1ccccc1 here?
**A.** inconclusive [inhibitor, full curve, poor fit]

**Q.** Which Potency does the source give for NC(=NCCc1ccccc1)NS(=O)(=O)c1ccccc1F here?
**A.** inconclusive [inhibitor, full curve]

**Q.** How did the Potency turn out when COc1ccccc1C(=O)Nc1ccc(OCC(=O)N2CCCCC2C)cc1 (centres undefined) was run?
**A.** inconclusive [inhibitor, single point]

**Q.** Which Potency does the source give for CC(=O)c1cccc(NC(=O)c2ccc(S(=O)(=O)N3CCCCC3)cc2)c1 here?
**A.** inconclusive [inhibitor, full curve, poor fit]

**Q.** Which Potency does the source give for O=C(NCc1ccccc1)C1CCCN(c2cnccn2)C1 (centres undefined) here?
**A.** inconclusive [inhibitor, full curve, poor fit]

**Q.** Which “activity change, negative = inhibition” value does the source give for CN(C)c1ccc(C(=O)Nc2cccc(S(=O)(=O)N3CCCC3)c2)cc1 here?
**A.** inactive: -15.3%

**Q.** How did the “activity change, negative = inhibition” value turn out when CCOc1ccc(CC(=O)C2=C(N3CCOCC3)CC(C)(C)CC2=O)cc1OCC was run?
**A.** inactive: 6.63%

**Q.** For CCNc1nc2c(c(=O)n(C)c(=O)n2C)n1Cc1ccc(Cl)cc1, which Potency is on record?
**A.** inconclusive [inhibitor, full curve]

**Q.** Which Potency does the source give for CCOC(=O)NC(Nc1cc(C)ccn1)(C(F)(F)F)C(F)(F)F here?
**A.** inconclusive [inhibitor, full curve, poor fit]

**Q.** For COc1ccc(NC(=O)CC(C)NCCCN2CCCC2=O)cc1 (centres undefined), which Potency is on record?
**A.** inconclusive [inhibitor, full curve, poor fit]

**Q.** Which Potency does the source give for Cc1ccc2[nH]ccc(=O)c2c1 here?
**A.** inconclusive [inhibitor, full curve, poor fit]

**Q.** How did the Potency turn out when COc1ccc2nc(/N=C(\N)NC(=O)N3c4ccccc4Sc4ccccc43)nc(C)c2c1 was run?
**A.** inconclusive [inhibitor, full curve, poor fit]

**Q.** How did the Potency turn out when O=S1(=O)CCC(NS(=O)(=O)c2cccc3cccnc23)C1 (centres undefined) was run?
**A.** inconclusive [inhibitor, full curve, poor fit]

**Q.** For Cc1ccc(NC(=O)CN(C)S(=O)(=O)c2ccc3c(c2)n(C)c(=O)c(=O)n3C)c(C)c1, which Potency is on record?
**A.** inconclusive [inhibitor, full curve, poor fit]

**Q.** How did the Potency turn out when CC1CCCN(CCCNC(=O)C2CCN(S(=O)(=O)N3CCC4(CC3)OCCO4)CC2)C1 (centres undefined) was run?
**A.** inconclusive [inhibitor, single point]

**Q.** How did the Potency turn out when O=C(CNC(=O)c1ccc2c(c1)OCCO2)N/N=C/c1ccc([N+](=O)[O-])cc1 was run?
**A.** inconclusive [inhibitor, partial curve]

**Q.** With CCOC(=O)c1cc(CC)sc1N1C(=O)CC(Sc2ncccc2C(=O)O)C1=O (centres undefined) as the compound, how does the Potency read?
**A.** inconclusive [inhibitor, single point]

**Q.** COc1ccc(C(=O)NCC(c2cccs2)N2CCOCC2)cc1OC (centres undefined) was tested. Which Potency did it give?
**A.** inconclusive [inhibitor, single point]

**Q.** Which Potency does the source give for COC(=O)c1cc(Br)c(=O)n(CCc2ccc(F)cc2)c1 here?
**A.** inconclusive [inhibitor, single point]

**Q.** Cc1c(NC(=O)CN2CCN(c3ccc(O)cc3)CC2)c(=O)n(-c2ccccc2)n1C was tested. Which Potency did it give?
**A.** inconclusive [inhibitor, full curve, poor fit]

**Q.** CC(CNC(=O)COC(=O)c1cccnc1Cl)c1ccccc1 (centres undefined) was tested. Which Potency did it give?
**A.** inconclusive [inhibitor, full curve, poor fit]

**Q.** With Nc1ccc2nc(C(F)(F)F)[nH]c2c1 as the compound, how does the Potency read?
**A.** inconclusive [inhibitor, single point]

**Q.** For Nc1ccc(N)c(C(=O)O)c1, which “activity change, negative = inhibition” value is on record?
**A.** inactive: -6.79%

**Q.** How did the “activity change, negative = inhibition” value turn out when CC(Nc1cc(N2CCCC2)ccc1[N+](=O)[O-])c1ccccc1 (centres undefined) was run?
**A.** inactive: -1.16%

**Q.** How did the “activity change, negative = inhibition” value turn out when CCc1ccc(NC(=O)CSc2nc3n[nH]c(C)c3c(=N)n2-c2ccc(C)cc2)cc1 was run?
**A.** inactive: 5.93%

**Q.** C=C[C@@]12CN(C)[C@H]3[C@H]1[C@@]1(C(=O)Nc4ccccc41)C1CC2[C@@H]3CO1 was tested. Which Potency did it give?
**A.** inconclusive [inhibitor, partial curve, poor fit]

**Q.** For CCOc1ccc2nc(S(N)(=O)=O)sc2c1, which Potency is on record?
**A.** inconclusive [inhibitor, partial curve]

**Q.** With CCSc1nsc(NC(=O)Nc2cccc(C(C)=O)c2)n1 as the compound, how does the Potency read?
**A.** inconclusive [inhibitor, full curve, poor fit]

**Q.** How did the Potency turn out when CCOC(=O)c1c(C(C)(C)C)oc2ccc(OCC#N)cc12 was run?
**A.** inconclusive [inhibitor, partial curve]

**Q.** CCOC(=O)c1sc2nc(CC(=O)OC)nc(NCc3ccco3)c2c1C was tested. Which Potency did it give?
**A.** inconclusive [inhibitor, full curve, poor fit]

**Q.** For COC(=O)[C@@]1(Cc2ccc(OC)cc2)[C@H]2c3cc(C(=O)N4CCCC4)n(Cc4ccc(C)o4)c3C[C@H]2CN1C(=O)c1ccccc1, which Potency is on record?
**A.** inconclusive [inhibitor, full curve, poor fit]

**Q.** Which Potency does the source give for O=C(COc1ccccc1)Nc1nn[nH]n1 here?
**A.** inconclusive [inhibitor, full curve, poor fit]

**Q.** For COc1ccc(OC)c(NC(=O)CCNS(=O)(=O)c2cccc3nsnc23)c1, which Potency is on record?
**A.** inconclusive [inhibitor, partial curve]

**Q.** CCOC(=O)Cn1c(=O)c2c(nc3n2CCN3Cc2ccccc2)n(C)c1=O was tested. Which Potency did it give?
**A.** inconclusive [inhibitor, partial curve, poor fit]

**Q.** Cc1ccc(-n2c(SCC(=O)Nc3ccc4c(c3)OCO4)nnc2-c2cccs2)cc1 was tested. Which Potency did it give?
**A.** inconclusive [inhibitor, partial curve]

**Q.** Which Potency does the source give for Cc1ccc(-c2nnn(CC(=O)N3CCCCC3)n2)cc1 here?
**A.** inconclusive [inhibitor, full curve, poor fit]

**Q.** For COc1ccc(C(=O)/C=C/c2ccccc2F)c(OC(=O)c2ccc([N+](=O)[O-])cc2)c1, which Potency is on record?
**A.** inconclusive [inhibitor, full curve, poor fit]

**Q.** COC(=O)c1ccc(NC(=O)c2cc[n+]([O-])cc2)cc1 was tested. Which Potency did it give?
**A.** inconclusive [inhibitor, full curve, poor fit]

Reference: PubChem BioAssay AID485294 (National Center for Advancing Translational Sciences (NCATS), 2010)
